Data reported in article doi:10.1101/2020.05.04.077941 (bioRxiv, 2020).

How the values were obtained:
[1] = target: T1, His-FLAG-NEPH1-FL (full length) (Mus musculus, UniProt Q80W68 48-789); experiment: SPR
T1 sequence: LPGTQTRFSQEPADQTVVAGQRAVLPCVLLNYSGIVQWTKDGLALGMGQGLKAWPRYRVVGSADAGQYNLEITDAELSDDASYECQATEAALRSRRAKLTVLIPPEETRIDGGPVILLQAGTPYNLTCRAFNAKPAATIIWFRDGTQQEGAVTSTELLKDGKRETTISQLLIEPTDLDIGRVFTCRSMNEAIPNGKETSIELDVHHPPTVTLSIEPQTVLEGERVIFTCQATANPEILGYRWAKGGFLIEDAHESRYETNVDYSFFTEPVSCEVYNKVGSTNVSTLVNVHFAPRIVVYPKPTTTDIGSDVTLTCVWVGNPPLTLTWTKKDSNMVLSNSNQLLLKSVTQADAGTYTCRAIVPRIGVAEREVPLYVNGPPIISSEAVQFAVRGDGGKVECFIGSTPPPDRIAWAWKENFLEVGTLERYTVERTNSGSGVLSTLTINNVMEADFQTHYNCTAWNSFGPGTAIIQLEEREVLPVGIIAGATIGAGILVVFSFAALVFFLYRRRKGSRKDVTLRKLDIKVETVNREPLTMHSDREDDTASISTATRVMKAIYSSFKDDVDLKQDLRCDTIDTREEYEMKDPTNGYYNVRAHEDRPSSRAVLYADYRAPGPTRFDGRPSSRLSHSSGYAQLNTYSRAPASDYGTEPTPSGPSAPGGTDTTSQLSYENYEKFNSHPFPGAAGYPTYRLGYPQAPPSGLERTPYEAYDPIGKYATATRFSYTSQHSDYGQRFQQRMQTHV

[2] = target: T2, His-FLAG-NEPHRIN-ECD (entire extracellular domain) (Mus musculus, UniProt Q9QZS7 37-1078); experiment: SPR
T2 sequence: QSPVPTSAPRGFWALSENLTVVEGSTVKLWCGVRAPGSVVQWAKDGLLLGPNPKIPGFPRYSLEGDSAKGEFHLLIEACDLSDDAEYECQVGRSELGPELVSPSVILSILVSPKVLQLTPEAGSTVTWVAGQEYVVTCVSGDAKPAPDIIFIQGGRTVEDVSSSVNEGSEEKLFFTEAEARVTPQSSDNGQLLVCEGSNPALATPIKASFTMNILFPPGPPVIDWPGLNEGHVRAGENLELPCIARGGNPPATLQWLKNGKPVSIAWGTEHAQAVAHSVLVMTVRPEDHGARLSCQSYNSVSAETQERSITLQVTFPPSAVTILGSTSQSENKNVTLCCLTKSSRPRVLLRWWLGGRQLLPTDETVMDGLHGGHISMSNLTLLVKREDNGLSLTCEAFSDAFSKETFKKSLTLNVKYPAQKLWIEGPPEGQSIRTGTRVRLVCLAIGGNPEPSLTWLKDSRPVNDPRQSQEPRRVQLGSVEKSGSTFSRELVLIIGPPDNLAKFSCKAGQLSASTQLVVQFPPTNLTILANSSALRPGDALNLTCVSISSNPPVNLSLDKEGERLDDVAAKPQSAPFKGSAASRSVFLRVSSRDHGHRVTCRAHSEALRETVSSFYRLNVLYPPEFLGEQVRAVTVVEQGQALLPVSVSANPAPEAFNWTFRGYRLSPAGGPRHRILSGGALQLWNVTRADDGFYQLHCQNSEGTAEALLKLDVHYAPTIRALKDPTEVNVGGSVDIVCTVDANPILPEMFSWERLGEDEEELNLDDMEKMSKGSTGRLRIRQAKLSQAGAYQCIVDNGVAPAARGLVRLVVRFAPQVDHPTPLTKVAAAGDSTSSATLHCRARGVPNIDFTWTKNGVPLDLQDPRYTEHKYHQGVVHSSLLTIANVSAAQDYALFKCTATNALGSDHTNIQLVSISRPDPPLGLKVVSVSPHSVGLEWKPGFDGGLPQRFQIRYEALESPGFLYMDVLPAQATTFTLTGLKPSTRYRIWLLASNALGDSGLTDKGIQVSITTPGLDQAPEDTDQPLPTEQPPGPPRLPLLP

B1: purified human recombinant HGF (ligand)
chain: not shown
[1]
  Kd: 25.7 nM
[2]
  Kd: 0.4 nM
